Measurements taken from the supplement of paper PMC6135742.
Counter-ions that a name gives are not always drawn. ± gives the standard deviation of the averaged measurements. Whole data set: some 2,600 compounds, median “MBP+ mature oligodendrocyte number relative to DMSO vehicle control” near -0.34, cut for the highest 2% near 13. Some of the results follow.

system: jimpy (Plp1 jimpy) mouse iPSC-derived oligodendrocyte progenitor cells; assay: MBP+ mature oligodendrocyte number relative to DMSO vehicle control (SDs above negative control mean); higher = more surviving jimpy oligodendrocytes (rescue); details: 10 µM; 3 days
Protocol: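 Primary phenotypic screen of >3,000 bioactive compounds (Selleck L1700 and Sigma LO1280 libraries) at a single dose of 10 µM. Compounds were added to jimpy (Plp1 mutant) mouse iPSC-derived OPCs at the start of thyroid hormone-induced oligodendrocyte differentiation, one well per compound in 384-well plates. After 3 days cells were stained for MBP, Sox10 and DAPI and imaged with an Operetta system. MBP+ oligodendrocyte number and total cell number were expressed as the number of SDs above the mean of the DMSO negative control on the same plate (n=16 control wells per plate). Hits were defined as >=4 SD for oligodendrocytes and >=2 SD for total cells.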

Compared with N=C(N)NN [Aminoguanidine hemisulfate], NC(N)=NOCC[C@H](N)C(=O)O [L-Canavanine] is higher in “MBP+ mature oligodendrocyte number” value: -1.3 for the first, 0.0839 for the second.

First: N=C(N)NN [Aminoguanidine hydrochloride]
Second: NC(N)=NOCC[C@H](N)C(=O)O [L-Canavanine sulfate]
The “MBP+ mature oligodendrocyte number” value of the first is higher: -0.551 for the first, -1.26 for the second.

First: CC(C)N(CCC(C(N)=O)(c1ccccc1)c1ccccn1)C(C)C (configuration not stated) [Disopyramide]
Second: CC(Cc1ccc(OCC(=O)O)cc1)NCC(O)c1cccc(Cl)c1 (configuration not stated)
The “MBP+ mature oligodendrocyte number” value of the first is higher: 2.18 for the first, -0.825 for the second.

Going from CC(C)N(CCC(C(N)=O)(c1ccccc1)c1ccccn1)C(C)C (configuration not stated) [Disopyramide phosphate] to CN1[C@@H]2CC[C@H]1C[C@@H](OC(=O)[C@H](CO)c1ccccc1)C2 [Hyoscyamine], the “MBP+ mature oligodendrocyte number” value falls from 1.13 to 0.819.

Compared with O=[N+]([O-])/C=C/c1ccc2c(c1)OCO2, c1cc2c(cc1[C@H]1OC[C@H]3[C@@H]1CO[C@@H]3c1ccc3c(c1)OCO3)OCO2 [Sesamin] is higher in “MBP+ mature oligodendrocyte number” value: -5.59 for the first, 0.283 for the second.

Going from CC(C)=CCOc1c2occc2cc2ccc(=O)oc12 [Imperatorin] to CC(N)Cc1c[nH]c2ccc(OCc3cccs3)cc12 (configuration not stated), the “MBP+ mature oligodendrocyte number” value falls from 2.02 to -3.03.

Going from C=CCN1C[C@H](C)N([C@H](c2ccc(C(=O)N(CC)CC)cc2)c2cccc(OC)c2)C[C@H]1C to COc1ccc(C(=O)N2CCCC2=O)cc1 [Aniracetam], the “MBP+ mature oligodendrocyte number” value falls from 8.68 to -0.114 ± 0.56.

First: O=[N+]([O-])c1cc(O)c(O)c([N+](=O)[O-])c1 [3,5-Dinitrocatechol]
Second: O=[N+]([O-])c1ccc2nc(N3CCNCC3)ccc2c1 [Quipazine, 6-nitro-, maleate]
The “MBP+ mature oligodendrocyte number” value of the first is higher: 0.869 for the first, -2.43 for the second.

Going from CN[C@@H]1C[C@@H](c2ccc(Cl)c(Cl)c2)c2ccccc21 [Indatraline hydrochloride] to Clc1cnc(Oc2ccc(Oc3ncc(Cl)cc3Cl)cc2)c(Cl)c1, the “MBP+ mature oligodendrocyte number” value rises from -3.77 to -0.568.

Compared with Fc1cc(F)c2c(c1)[C@H]1C=CC[C@H]1C(c1cccnc1)N2 (some centres not stated) [Golgicide A], C=C[C@H]1CN2CC[C@H]1C[C@H]2[C@H](O)c1ccnc2ccccc12 [Cinchonidine] is higher in “MBP+ mature oligodendrocyte number” value: -6.18 for the first, 1.18 for the second.

Going from CN1[C@@H]2CC[C@H]1C[C@@H](OC(=O)[C@H](CO)c1ccccc1)C2 [L-Hyoscyamine] to O=C1/C(=C/c2ccccc2)C[C@@]2(O)[C@H]3Cc4ccc(O)c5c4[C@@]2(CCN3CC2CC2)[C@H]1O5 [BNTX maleate salt hydrate], the “MBP+ mature oligodendrocyte number” value falls from 0.712 to less than -4.47.

Going from Nc1nc(N)nc(NC2CC2)n1 [Cyromazine] to CCCN1CCC[C@@H]2Cc3nc(N)ncc3C[C@H]21 [Quinelorane dihydrochloride], the “MBP+ mature oligodendrocyte number” value falls from 3.62 to -0.961.

Going from O=C(N[C@H]1CN2CCC1CC2)c1cc2ccoc2cn1 to O=C(N[C@H]1CN2CCC1CC2)c1ccc(Cl)cc1, the “MBP+ mature oligodendrocyte number” value falls from 0.813 to 0.0294.

Compared with C=C(C)[C@H]1CN[C@H](C(=O)O)[C@H]1CC(=O)O [Kainic acid], CC(C)(C)OC(=O)NC1[C@H]2CNC[C@@H]12 (some centres not stated) is lower in “MBP+ mature oligodendrocyte number” value: 0.617 for the first, 0.225 for the second.

Compared with Cc1cc(O)ccc1Cl [Chlorocresol], CNCCc1ccc(O)c(O)c1 [N-Methyldopamine hydrochloride] is lower in “MBP+ mature oligodendrocyte number” value: 0.407 for the first, -0.544 for the second.

First: N#Cc1ccc(N2CCN(C(=O)COc3ccc4[nH]cc(CCN)c4c3)CC2)cc1 [Donitriptan monohydrochloride]
Second: NC(=O)c1ccc(OCC(O)CN2CC=C(c3ccc(F)cc3)CC2)cc1 (configuration not stated)
The “MBP+ mature oligodendrocyte number” value of the first is lower: -0.648 for the first, 13.9 for the second.

Going from CC(C)(C)c1cc(C(C)(C)C)c2c(c1)C(O)(C(F)(F)F)C(=O)O2 (racemic) to C/C(=C\c1csc(C)n1)[C@@H]1C[C@@H]2O[C@]2(C)CCC[C@H](C)[C@H](O)[C@@H](C)C(=O)C(C)(C)[C@@H](O)CC(=O)O1 [Epothilone B (EPO906, Patupilone)], the “MBP+ mature oligodendrocyte number” value falls from 0.182 to -0.589.

Compared with CCCCC/C=C\C/C=C\C/C=C\C/C=C\CCCC(=O)NCc1ccc(O)c(OC)c1 [Arvanil], CC(Cc1ccc(O)cc1)NCC(O)c1cc(O)cc(O)c1 (configuration not stated) [Fenoterol hydrobromide] is higher in “MBP+ mature oligodendrocyte number” value: less than -3.34 for the first, -0.91 for the second.

Going from O=c1[nH]c2ccccc2n1CCCN1CCC(n2c(=O)[nH]c3cc(Cl)ccc32)CC1 [Domperidone] to CN(C)Cc1c[nH]c2ccccc12 [Gramine], the “MBP+ mature oligodendrocyte number” value rises from -1.87 ± 0.2 to 5.21.

Going from S=C(NC1CCCCC1)N1CCC(c2cnc[nH]2)CC1 [Thioperamide maleate] to C1=C2CCCN[C@H]2[C@@H]2C[C@H]1[C@H]1CCCCN1C2 [Aloperine], the “MBP+ mature oligodendrocyte number” value falls from 0.182 to -3.52.

First: CN1[C@@H]2CC(O)C[C@H]1[C@@H]1O[C@@H]12 (some centres not stated) [Scopine]
Second: CC1(C)CC(O)CC(C)(C)N1[O] [Tempol]
The “MBP+ mature oligodendrocyte number” value of the first is lower: 0.227 for the first, 1.93 for the second.

Going from CN1[C@@H]2CC(O)C[C@H]1[C@@H]1O[C@@H]12 (some centres not stated) [Scopine HCl] to NC(=O)CN1CC(O)CC1=O (configuration not stated) [Oxiracetam], the “MBP+ mature oligodendrocyte number” value falls from 0.171 to -0.598.

Going from N[C@@H](Cn1oc(=O)[nH]c1=O)C(=O)O [(+)-Quisqualic acid] to CC[C@@H](C(N)=O)N1CCCC1=O [Levetiracetam], the “MBP+ mature oligodendrocyte number” value falls from 2.11 to 0.32 ± 0.42.

First: COC[C@H]1OC(=O)c2coc3c2[C@@]1(C)C1=C(C3=O)[C@@H]2CCC(=O)[C@@]2(C)C[C@H]1OC(C)=O [Wortmannin]
Second: C=CC[C@]1(O)CC[C@H]2[C@@H]3CCC4=CC(=O)CCC4=C3C=C[C@@]21C [Altrenogest]
The “MBP+ mature oligodendrocyte number” value of the first is lower: -0.928 for the first, 8.76 for the second.

Compared with Cc1cccc(C(C)c2c[nH]cn2)c1C (configuration not stated) [Medetomidine HCl], CCS(=O)(=O)Nc1cccc(C(=C2CCCCC2)c2cnc[nH]2)c1 is higher in “MBP+ mature oligodendrocyte number” value: -1.17 for the first, 2.51 for the second.

Going from COc1ccc2c(c1)[C@]13CCCC[C@@H]1[C@H](C2)N(C)CC3 [Dextromethorphan hydrobromide monohydrate] to C[N+]1(C)CCOC(O)(c2ccc(-c3ccc(C4(O)C[N+](C)(C)CCO4)cc3)cc2)C1 (configuration not stated) [Hemicholinium-3], the “MBP+ mature oligodendrocyte number” value rises from -1.43 to -0.596.

Going from CNCC(O)c1ccc(O)cc1 (racemic) [(±)-Synephrine] to Nc1ccncc1 [4-Aminopyridine], the “MBP+ mature oligodendrocyte number” value rises from -0.211 to -0.000818.

Going from C1CCc2nnnn2CC1 [Pentylenetetrazole] to C[N+](C)(C)CC#CCN1CCCC1=O [Oxotremorine methiodide], the “MBP+ mature oligodendrocyte number” value rises from -1.23 to 0.0686.

For Cn1cnc(CCN)c1 [1-Methylhistamine dihydrochloride], the “MBP+ mature oligodendrocyte number” value was -0.167.
